In all, about 310,000 compounds went through this assay and about 11,000 (3.5%) were called active. The inconclusive results got no clear call from the source; some entries with a clear call stand among them for comparison. Calls follow the shape of the dose curve; as a rule, active = well fitted inhibition curve with a large enough effect; inconclusive = small, poorly fitted or top-dose-only effect, or effect the other way; inactive = flat fitted curve, though single readings scatter. Potencies of inconclusive entries are left out as doubtful fits.
Test: VP16 counterscreen qHTS for inhibitors of ROR gamma transcriptional activity;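 also: Gal4-VP16 expression switched on by copper sulfate through the metallothionein promoter; nearly all actives have a fitted effect of over 50% in size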
Details: Drosophila S2 Gal4-VP16 UAS-luciferase, luminescence, 20 h; activity, negative = inhibition: at 53.6 µM (top of the series)
% is scaled to controls: 0 for no effect and ±100 for the full control effect; potency is read from the fitted curve at half-maximal effect; tags tell the direction and shape of the fitted curve.

SMILES	Potency	activity, negative = inhibition
COc1ccc2sc(N3C(=O)C4CC=C(C)CC4C3=O)nc2c1 (stereo not drawn)	inconclusive [activator, single point]	–
CCn1c(-c2csc3c2CCC(C)C3)n[nH]c1=S (stereo not drawn)	active: 2.82 µM	–
CCN(CC)CCN(C(=O)c1c(F)cccc1F)c1nc2cc(C)cc(C)c2s1	inconclusive [inhibitor, single point]	–
CC1=C/C(=N\N=C2\NC(=O)C(CC(=O)Nc3ccccc3)S2)CC(C)(C)C1 (stereo not drawn)	inconclusive [inhibitor, single point]	–
O=C(Cc1csc(N2CCOCC2)n1)N/N=C/c1ccc(Cl)cc1Cl	–	inactive: -2.71%
CC1CC(C)(C)NC(=S)N1CC(=O)NCc1ccccc1Cl (stereo not drawn)	inconclusive [inhibitor, single point]	–
O=C(N/N=C/c1c[nH]c2ccc(Br)cc12)c1ccncc1	inconclusive [inhibitor, single point]	–
Cc1nn(C)c(Nc2ccc(Br)cc2)c1Br	active: 11.2 µM	–
Clc1ccc(-c2nnc(CSc3nnc(-c4cccs4)n3Cc3ccccc3)o2)cc1	active: 17.8 µM	–
COc1ccc(C2C=C3CNS(=O)(=O)C3CC2OC(=O)c2ccc(Cl)cc2)cc1 (stereo not drawn)	inconclusive [inhibitor, single point]	–
CC1=C(c2ccc(C(C)C)cc2)S(=O)(=O)N=C1N1CCN(C(=O)c2ccco2)CC1	–	inactive: -1.97%
N#C/C(=N\Nc1cccc([N+](=O)[O-])c1)C(=O)c1ccc(Br)cc1	active: 5.01 µM	–
CCN1C(=S)N[C@@H](c2cccc(F)c2)C(C(=O)OC)=C1C	active: 11.2 µM	–
O=C(NCCc1ccccc1)c1ccccc1NC(=O)C1CCCO1 (stereo not drawn)	inconclusive [inhibitor, partial curve]	–
CCC(C)(C)c1ccc(OCCCC[n+]2cccc(C)c2C)c(C(C)(C)CC)c1	active: 11.2 µM	–
O=C(NCc1cccc(Cl)c1)NCc1cccc(Cl)c1	–	inactive: 0.868%
O=C(COC(=O)c1cccc(NS(=O)(=O)c2ccc(F)c(F)c2)c1)NC(=O)NC1CCCCC1	inconclusive [inhibitor, single point]	–
O=C(/C=C/c1ccc(Br)cc1)NC(=S)N1CCOCC1	active: 0.398 µM	–
CCOC(=O)C1=C(C)N(c2ccccc2)C(=O)/C1=C\c1ccco1	inconclusive [inhibitor, single point]	–
CC(C)CC(=O)NC(=S)N(Cc1ccccc1)Cc1ccccc1	active: 6.31 µM	–
CCCCNC(=S)N1CCC(Cc2ccccc2)CC1	inconclusive [inhibitor, single point]	–
Cc1ccc(C(=O)Nc2nc(-c3ccccc3)c(-c3ccccc3)o2)cc1	active: 5.62 µM	–
COc1ccc(C)cc1NC(=S)N1CCN(c2ccccn2)CC1	inconclusive [inhibitor, single point]	–
COc1cccc(/C=N/NC(=O)c2cnccn2)c1O	active: 2.51 µM	–

SMILES	Potency	activity, negative = inhibition
CCCC(=O)Nc1ccccc1-c1nnn(CC(=O)Nc2ccc(OCC)cc2)n1	inconclusive [inhibitor, partial curve]	–
O=C1CCCC(O)=C1N=Nc1c(Cl)cc(Cl)cc1Cl	inconclusive [inhibitor, single point]	–
Cc1noc(C)c1-c1nc(N(C)C)c2ccccc2n1	–	inactive: 2.37%
Cc1ccc(CSc2ncnc3onc(C)c23)cc1	–	inactive: -5.47%
COc1ccc(S(=O)(=O)N2c3ccccc3OCC2C(C)(C)C)cc1 (stereo not drawn)	active: 15.8 µM	–
O=C(N/N=C/c1ccc[nH]1)c1cc(-c2cccs2)nc2ccccc12	active: 6.31 µM	–
Cc1ccc(-n2ncc(Cl)c2C(=O)NCc2ccccc2)cc1	–	inactive: 5.59%
CNC(=S)NC1(C)CCS(=O)(=O)C1 (stereo not drawn)	–	inactive: -0.0189%
c1ccc(-c2c3ccccc3nc3[nH]c4ccccc4c23)cc1	inconclusive [inhibitor, single point]	–
Cc1cc(O)c(-c2cc(O)c(C)cc2O)cc1O	inconclusive [inhibitor, single point]	–
COc1cccc(Cn2c(=O)c(-c3cccs3)nc3cnc(N4CCNCC4)nc32)c1	inconclusive [inhibitor, single point]	–
COc1ccc(S(=O)(=O)NC(CC(=O)NCc2ccccc2OC)c2ccco2)cc1 (stereo not drawn)	inconclusive [inhibitor, full curve]	–
O=C1c2ccccc2-c2nnc(-c3ccc(O)cc3)cc21	inconclusive [inhibitor, single point]	–
COC(=O)c1sc(-c2cccs2)cc1NC(=O)/C=C/C(=O)O	inconclusive [inhibitor, single point]	–
COC(=O)C1=NN(c2cccc(C)c2)C2C(=O)N(c3ccccc3OC)C(=O)C12 (stereo not drawn)	inconclusive [activator, single point]	–
O=C(CSc1nnc(SCC(=O)c2ccco2)s1)c1ccco1	–	inactive: 20.4%
COc1cc2nc(N3CCN(C(=O)[C@H]4COc5ccccc5O4)CC3)nc(N)c2cc1OC	inconclusive [inhibitor, full curve, poor fit]	–
CCCn1c(-c2ccc(F)cc2)nc2c(N3CCCN(Cc4ccccc4)CC3)nc(C)nc21	inconclusive [activator, single point]	–
COc1ccc(CCNC(=O)c2cc(S(=O)(=O)N3CCOCC3)cn2C)cc1OC	–	inactive: -4.49%
CNc1cc(CSC)nc(SCc2ccc(Cl)c(Cl)c2)n1	inconclusive [inhibitor, single point]	–
Cc1ccc(NC(=O)C2CCN(S(=O)(=O)c3ccc(N4CCCC4=O)cc3)CC2)cc1Cl	active: 3.16 µM	–
C/C(Cn1nnc([N+](=O)[O-])n1)=N\NC(=O)c1ccccc1O	inconclusive [inhibitor, single point]	–
Cc1cccc(Cn2c(NCC(C)O)nc3c2c(=O)n(C)c(=O)n3C)c1 (stereo not drawn)	inconclusive [inhibitor, single point]	–
Cn1c(-c2ccccc2)cnc1SCC(=O)N1CCCCC1	active: 8.91 µM	–

Reference: PubChem BioAssay AID2546 (National Center for Advancing Translational Sciences (NCATS), 2010)
